59 sequences from paper PMC6451091 can be followed below.

What all share (details): 20 mM HEPES pH 7.9, 100 mM NaCl, 1 mM DTT, 0.2 mg/mL BSA, 0.02% Triton X-100, 2% milk, 0.4 mg/mL salmon testes DNA; 1 h; temperature not stated; high values mean tight binding; double strand, one strand shown; sequences stand for … in GCCTAGCAC…GTGCTAGGTCTTGATTCGCTTGACGCTGCTG
Test [1] has as its target PU.1 (IVT) (UniProt P17947). As to the kind of experiment: protein-binding microarray (PBM).
The target of test [2] is PU.1 (endogenous, THP-1 nuclear extract) (UniProt P17947). As to the kind of experiment: nuclear extract protein-binding microarray (nextPBM).
Test [3] addresses T1, FLI1 (endogenous, THP-1 nuclear extract) (UniProt Q01543).
T1 sequence: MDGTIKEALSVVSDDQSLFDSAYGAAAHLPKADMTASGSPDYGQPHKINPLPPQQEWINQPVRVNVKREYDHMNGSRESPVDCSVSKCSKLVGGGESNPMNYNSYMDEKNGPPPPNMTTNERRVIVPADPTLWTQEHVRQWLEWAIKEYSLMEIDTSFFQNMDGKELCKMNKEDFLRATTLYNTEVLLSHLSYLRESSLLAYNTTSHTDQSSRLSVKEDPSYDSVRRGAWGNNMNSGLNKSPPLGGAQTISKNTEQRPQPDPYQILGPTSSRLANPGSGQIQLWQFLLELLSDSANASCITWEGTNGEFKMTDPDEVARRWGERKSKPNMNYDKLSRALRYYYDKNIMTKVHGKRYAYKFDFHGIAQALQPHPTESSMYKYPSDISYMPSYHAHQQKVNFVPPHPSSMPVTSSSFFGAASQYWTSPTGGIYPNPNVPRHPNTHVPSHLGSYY
Described as above.

Test [4] relates to PU.1 (endogenous, THP-1 nuclear extract) + IRF8 (endogenous, THP-1 nuclear extract). The test is described as above.

This is one part of the list. For some of these results: At the low end of the ranking the order means little. For some of these results: Measured with an extract: partners may take part in the binding.

Consider CTTCCCAAATAGGCTGAGTT, for which the binding signal was 0.617 z-score in test [1], 0.6 z-score in test [2], 0.0342 z-score in test [3] and -0.0695 z-score in test [4].
Take AAAACATAACAGCCACTAAC: the binding signal was -0.179 z-score in test [1], -0.287 z-score in test [2], -0.263 z-score in test [3] and -0.586 z-score in test [4].
For ACTGGGCCAAAGGTACCTTC the same measures were -0.531 z-score, -0.112 z-score, -0.726 z-score and -0.044 z-score.
As for CAAAGTTCTGTCTTCATGGA, the binding signal in test [1] was -0.0387 z-score; in test [2] it was 0.0899 z-score; in test [3] it was -0.159 z-score; in test [4] it was 0.169 z-score.
Taken in the same sequence, the figures for GTCCAAAGTGGTCCTGGGAA were 2.06 z-score, 1.51 z-score, 1.29 z-score and 0.859 z-score.
For GTGAGCTTTTTGTCTTCAAA, the binding signal in test [1] was -0.296 z-score; in test [2], -0.239 z-score; in test [3], -0.337 z-score; in test [4], -0.0214 z-score.
Taken in the same sequence, the figures for GGGACGGCGTTCCCGGCGCG were -0.397 z-score, -0.0533 z-score, 0.263 z-score and 0.873 z-score.
Taken in the same sequence, the figures for GGCCAGTCACTGTGTAAGAT were -0.482 z-score, -0.542 z-score, -0.017 z-score and 0.643 z-score.
For GTTCCTGCCTAAACAGATTA the same measures were 0.42 z-score, 0.26 z-score, 0.271 z-score and -0.572 z-score.
CTTTTTTGCTTGCATGAGGA: the binding signal is -0.0187 z-score in test [1], -0.554 z-score in test [2], -0.298 z-score in test [3] and 0.484 z-score in test [4].
Taken in the same sequence, the figures for GGGCCAAGCAGGCATTAAAC were -0.0908 z-score, -0.307 z-score, -0.975 z-score and -0.72 z-score.
For ACAGGAAGCTTGGTGGACAC the same measures were 0.407 z-score, 0.78 z-score, 3.4 z-score and 1.37 z-score.
With TGCAGGTCTGCGTGAAACTG, the binding signal was 0.213 z-score in test [1], -0.0555 z-score in test [2], 0.297 z-score in test [3] and 2.97 z-score in test [4].
Consider CCGGGTTCAAGCGATTCTCC, for which the binding signal in test [1] was -0.84 z-score; in test [2] it was -0.532 z-score; in test [3], -0.633 z-score; in test [4], -0.477 z-score.
Taken in the same sequence, the figures for CAGAGAAGATAACCGCCAGT were -0.444 z-score, -0.158 z-score, 0.182 z-score and -0.0534 z-score.
Taken in the same sequence, the figures for AAGGATGCTGCGTGAAAGTG were -0.376 z-score, -0.213 z-score, 0.513 z-score and 1.56 z-score.
In the case of TGAGGGGATCGACATTGAAA, the binding signal is -0.0245 z-score in test [1], -0.413 z-score in test [2], -0.8 z-score in test [3] and 4.01 z-score in test [4].
Taken in the same sequence, the figures for AGAGAGACTGCGTGAAAGTA were 0.063 z-score, -0.345 z-score, -0.465 z-score and -0.0536 z-score.
For GCTCGCTCTCTCCGGGCGTT the same measures were -0.375 z-score, -0.289 z-score, -0.593 z-score and 0.435 z-score.
With TCAAATAAATACTGGAAAAC, the binding signal is -0.248 z-score in test [1], -0.276 z-score in test [2], 0.872 z-score in test [3] and -1.18 z-score in test [4].
For CCACTATCTCTGCACTCCTG the same measures were -0.545 z-score, -0.148 z-score, -0.0146 z-score and -0.161 z-score.
On to AGAGAGATGTGACTTGTCCA, for which the binding signal is 0.21 z-score in test [1], -0.0295 z-score in test [2], -0.787 z-score in test [3] and 0.668 z-score in test [4].
For AGACCAGCCTGGCCAACATG the same measures were -0.401 z-score, -0.187 z-score, -0.911 z-score and 0.41 z-score.
As for CCATGCATACAGAAGAGTGT, the binding signal in test [1] is -0.374 z-score; in test [2], -0.383 z-score; in test [3] it was -0.0451 z-score; in test [4], 0.315 z-score.
For ATGGTGAGTCATCAGCATGC the same measures were -0.547 z-score, -0.496 z-score, -0.345 z-score and 0.871 z-score.
For CTTTTATTATAAACTCTTCA the same measures were -0.297 z-score, -0.323 z-score, -0.242 z-score and -0.373 z-score.
Consider TGAGAGCAGAAGTGAAACCT, for which the figures for the binding signal in test [1], in test [3] and in test [4] were 1.66 z-score, 0.694 z-score and 28.5 z-score, respectively.
TAAAGGAGGAACTGCAACCA: the binding signal came out at 3.35 z-score in test [1], 0.996 z-score in test [3] and 0.864 z-score in test [4].
For TGGCAGAGGAAGTGAAGCTA, the values for the binding signal in test [1], in test [3] and in test [4] were 2.39 z-score, 2.44 z-score and 0.192 z-score, respectively.
Taken in the same sequence, the figures for CTGCCAGGGAAGTGAAAACA were 1.23 z-score, 1.07 z-score and 0.84 z-score.
Taken in the same sequence, the figures for TTGAGGAGGAAGTGAAACTG were 4.48 z-score, 4 z-score and 68.6 z-score.
Taken in the same sequence, the figures for TGAGAGGATAAGTGAAACCT were -0.0251 z-score, 0.0132 z-score and 11.1 z-score.
For TGGCAGAGGAAGTGAAATTA, the binding signal turned out to be 3.38 z-score in test [1], 2.81 z-score in test [3] and 1.65 z-score in test [4].
Taken in the same sequence, the figures for AATTTGAGGAACTGAAAGAA were 4.81 z-score, 1.51 z-score and 3.7 z-score.
Regarding AAGGACTTGTTCCAAGAATT, the binding signal in test [1] is -0.167 z-score; in test [2], -0.644 z-score; in test [3] it was -0.681 z-score; in test [4] it was -1.52 z-score.
In the case of TAAAAGAGGAACAGAAACTA, the values for the binding signal in test [1], in test [3] and in test [4] were 4.97 z-score, 2.58 z-score and 44.9 z-score, respectively.
As to TCTCCCAAATTTTCCGGCAG, the binding signal in test [1] was -0.214 z-score; in test [2] it was -0.273 z-score; in test [3], 1.81 z-score; in test [4], -0.133 z-score.
For the sequence GTCAAGAGGAACTGAAACTG, the results for the binding signal in test [1], in test [3] and in test [4] were 2.99 z-score, 1.78 z-score and 33.4 z-score, respectively.
Taken in the same sequence, the figures for CTGGCAGGGAACTAAAACTC were 1.1 z-score, 0.256 z-score and -0.758 z-score.
Taken in the same sequence, the figures for CTGGCAGGGAACTGAAGCTC were 0.405 z-score, -0.455 z-score and 0.463 z-score.
For the sequence CTGGCAGGGCACTGAAACTC, the binding signal in test [1] is -0.81 z-score; in test [3] it was -0.739 z-score; in test [4] it was 3.76 z-score.
Taken in the same sequence, the figures for CTGGCAGGGGACTGAAACTC were -0.594 z-score, -0.612 z-score and 5.46 z-score.
Take CCACAAAGATCTTGTGGGTA: the binding signal in test [1] is 0.145 z-score; in test [2], -0.0349 z-score; in test [3], -0.818 z-score; in test [4], 0.0906 z-score.
In the case of TGAAACAGGAAGTGAAACAA, the binding signal was found to be 6.1 z-score in test [1], 5.58 z-score in test [3] and 45 z-score in test [4].
For CTGCCAGGGAAGTGAAACCA, the binding signal was 1.07 z-score in test [1], 1.29 z-score in test [3] and 34.6 z-score in test [4].
For CTGGCAGGGAACTGAAACTG the same measures were 0.54 z-score, 0.217 z-score and 17.1 z-score.
Taken in the same sequence, the figures for CAGTGAGGGAAGTGAAACTA were 2.37 z-score, 2.1 z-score and 61.7 z-score.
For AAAAAAAGGAAATGAAAGTG the same measures were 3.27 z-score, 2.29 z-score and 10 z-score.
As for TGAAACAAGAAGTGAAACCA, the values for the binding signal in test [1], in test [3] and in test [4] were 1.48 z-score, 0.919 z-score and 39.5 z-score, respectively.
For TGAGAGGAGAAGTGAAATCT the same measures were 1.39 z-score, -0.132 z-score and 2.1 z-score.
With TCTTTTGGACTTCTGACCTC, the binding signal is -0.312 z-score in test [1], 0.0596 z-score in test [2], -0.541 z-score in test [3] and -1.23 z-score in test [4].
As for CTGGCAGGGACCTGAAACTC, the values for the binding signal in test [1], in test [3] and in test [4] were -0.741 z-score, -0.876 z-score and 5.04 z-score, respectively.
Take TGGCAGAGGAAGAGAAACTA: the binding signal in test [1] was found to be 0.937 z-score; in test [3] it was 0.722 z-score; in test [4] it was 3.61 z-score.
Taken in the same sequence, the figures for CAGGAGAGGAAGTGAAACTC were 4.18 z-score, 3.67 z-score and 60.6 z-score.
In the case of GTAACAAGGAACTGAAACTC, the binding signal in test [1] is 1.75 z-score; in test [3], 1.16 z-score; in test [4], 16.7 z-score.
Regarding TGAAACAGTAAGTGAAACCA, the binding signal in test [1] was found to be 0.111 z-score; in test [3], 0.0674 z-score; in test [4], 17.1 z-score.
Regarding AAAAATAGGAAATGAAAGTA, the binding signal in test [1] was 3 z-score; in test [3], 2.34 z-score; in test [4], 16.5 z-score.
Taken in the same sequence, the figures for AAAAAAAGGTAATGAAAGTA were 0.213 z-score, 0.0278 z-score and 3.35 z-score.
Consider CAGGGCACTGCGTGAAACCC, for which the binding signal in test [1] was -0.663 z-score; in test [2] it was -0.584 z-score; in test [3] it was -0.877 z-score; in test [4], 1.9 z-score.
